Experimental findings from the BET-seq Pho4 binding data (Le et al. 2018) are described below.

The list shows a part of the results. Values were computed here from the reads of four pooled replicates and scatter widely.

For the test, the target named is T1, Pho4 (S. cerevisiae) (UniProt P07270).
T1 sequence: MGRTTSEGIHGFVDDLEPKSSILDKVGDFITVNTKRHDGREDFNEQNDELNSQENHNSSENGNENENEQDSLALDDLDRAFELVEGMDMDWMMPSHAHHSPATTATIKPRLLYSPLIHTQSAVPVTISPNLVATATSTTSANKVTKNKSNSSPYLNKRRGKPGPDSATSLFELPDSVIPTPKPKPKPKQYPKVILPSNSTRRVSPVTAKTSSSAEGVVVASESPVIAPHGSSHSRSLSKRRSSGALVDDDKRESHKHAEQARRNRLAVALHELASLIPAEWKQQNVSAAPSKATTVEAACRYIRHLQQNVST
Briefly: relative binding free energy (BET-seq); higher = weaker binding. To be noted: reference: library average.
AGTTGCACGTGCGTAT: the “relative binding free energy” value is -0.07 kcal/mol.
Then GAGGTCACGTGGTCGG, with 0.21 kcal/mol.
The figure for TTTGGCACGTGGCAAT is -0.09 kcal/mol.
As to TGGCTCACGTGGGGGC, the “relative binding free energy” value amounted to 0.04 kcal/mol.
For the sequence CATTACACGTGTGTAT, the “relative binding free energy” value was found to be 0.05 kcal/mol.
As to ATGAGCACGTGATTTA, the “relative binding free energy” value was -0.02 kcal/mol.
As to TAAGGCACGTGCTTGG, the “relative binding free energy” value is -0.19 kcal/mol.
Then AGGGTCACGTGGTCTC, with 0.13 kcal/mol.
Turning to ACGTTCACGTGAAGGG, the “relative binding free energy” value was 0.38 kcal/mol.
As for AGGTACACGTGGCAGG, the “relative binding free energy” value was -0.05 kcal/mol.
Consider AGATTCACGTGGTGGG, for which the “relative binding free energy” value was determined as 0.19 kcal/mol.
ATGAGCACGTGGAAAG: the “relative binding free energy” value was -0.01 kcal/mol.
The figure for ATGGGCACGTGTATGT is -0.09 kcal/mol; for GGTGGCACGTGCAAGC it is 0.09 kcal/mol.
Then CGTGTCACGTGCGGTG, with 0.07 kcal/mol; and TGTGCCACGTGGTTGG, with -0.07 kcal/mol; and GAGAGCACGTGGTGTA, with -0.23 kcal/mol.
The figure for GGTCACACGTGAAGTG is 0.25 kcal/mol; for GTGGGCACGTGGGGAG it is -0.1 kcal/mol; for AAGTGCACGTGCGTGT it is -0.16 kcal/mol.
Consider GTGCGCACGTGGGGGT, for which the “relative binding free energy” value is -0.22 kcal/mol.
For the sequence GATTGCACGTGGTAGT, the “relative binding free energy” value is -0.01 kcal/mol.
In the case of CGTAGCACGTGCGGTT, the “relative binding free energy” value is -0.06 kcal/mol.
Consider TATTTCACGTGGTGTG, for which the “relative binding free energy” value amounted to 0.13 kcal/mol.
Regarding GTGGGCACGTGGGCTT, the “relative binding free energy” value is -0.11 kcal/mol.
The figure for ATCGGCACGTGGTGTG is -0.21 kcal/mol; for TGAGTCACGTGTCGTG it is 0.13 kcal/mol.
Consider TTTTACACGTGCTAGT, for which the “relative binding free energy” value was -0.07 kcal/mol.
Then TATCGCACGTGATGTT, with 0.07 kcal/mol.
The figure for GTCGACACGTGTGTAG is 0.09 kcal/mol; for ATATGCACGTGGTGTG it is -0.1 kcal/mol; for TAGAGCACGTGCGTTT it is -0.07 kcal/mol.
As to TTGTACACGTGTTGTA, the “relative binding free energy” value was found to be 0.06 kcal/mol.
Turning to TTGCTCACGTGGTCTA, the “relative binding free energy” value is 0.14 kcal/mol.
Then AGGTCCACGTGATGTG, with 0.07 kcal/mol.
As to TTTTGCACGTGCTGGG, the “relative binding free energy” value is -0.04 kcal/mol.
For TATTGCACGTGCTTTG, the “relative binding free energy” value was -0.2 kcal/mol.
The figure for GTCGGCACGTGTAGTT is 0.08 kcal/mol; for AAGGTCACGTGTATTT it is 0.06 kcal/mol.
Consider TGAGTCACGTGGAGTA, for which the “relative binding free energy” value came out at 0.11 kcal/mol.
Regarding AATGTCACGTGATGCA, the “relative binding free energy” value was determined as 0.2 kcal/mol.
Then GCTTTCACGTGTTGCT, with 0.27 kcal/mol; and CATGTCACGTGTACGG, with 0.13 kcal/mol.
On to GGGAGCACGTGTATTG, for which the “relative binding free energy” value is -0.1 kcal/mol.
The figure for CATATCACGTGATGTG is 0.21 kcal/mol.
Then TTAGTCACGTGTTCGG, with 0.12 kcal/mol; and GGGCTCACGTGTAGTA, with 0.25 kcal/mol.
On to TTGGACACGTGAGTGT, for which the “relative binding free energy” value was found to be 0.17 kcal/mol.
In the case of TAGGGCACGTGAGTGG, the “relative binding free energy” value was determined as 0.05 kcal/mol.
On to TAGAGCACGTGTGAGA, for which the “relative binding free energy” value was found to be 0.03 kcal/mol.
As for GATGGCACGTGAATGT, the “relative binding free energy” value was 0.15 kcal/mol.
On to AGAATCACGTGCTGGT, for which the “relative binding free energy” value worked out at 0.25 kcal/mol.
As for TGGGCCACGTGTAGAT, the “relative binding free energy” value was 0.1 kcal/mol.
Then GTACGCACGTGGAGTT, with 0.02 kcal/mol; and AGGTACACGTGTGATG, with 0.31 kcal/mol; and TTGTGCACGTGGTCGC, with -0.16 kcal/mol.
As to GCTTGCACGTGCCTGG, the “relative binding free energy” value stood at 0.12 kcal/mol.
Then TTAGCCACGTGGGGAA, with -0.22 kcal/mol; and TTCTGCACGTGTGATG, with 0.21 kcal/mol.
Consider TGTTTCACGTGGCGGG, for which the “relative binding free energy” value was 0.19 kcal/mol.
Then GCTTTCACGTGGATTG, with 0.3 kcal/mol.
The figure for ATTCTCACGTGTAGTA is 0.35 kcal/mol; for AAGTTCACGTGATTGG it is 0.43 kcal/mol.
As to TGGCGCACGTGGTTTA, the “relative binding free energy” value was -0.01 kcal/mol.
The figure for GTGACCACGTGTGAGG is 0.13 kcal/mol; for TTGGCCACGTGGCGTT it is -0.27 kcal/mol; for TGTATCACGTGGCTCG it is 0 kcal/mol.
For the sequence GTTACCACGTGGGATT, the “relative binding free energy” value amounted to 0.03 kcal/mol.
Regarding TTGATCACGTGTTATT, the “relative binding free energy” value was found to be 0.07 kcal/mol.
As for AGCGTCACGTGGGGCG, the “relative binding free energy” value is -0.03 kcal/mol.
Then TTGGTCACGTGCATTG, with 0.1 kcal/mol.
Turning to TGGGACACGTGATTTA, the “relative binding free energy” value turned out to be 0.21 kcal/mol.
On to AGGCTCACGTGTGGTA, for which the “relative binding free energy” value stood at 0.06 kcal/mol.
Consider AGCATCACGTGCGGGT, for which the “relative binding free energy” value worked out at 0.02 kcal/mol.
The figure for CGTGGCACGTGGTAAG is -0.19 kcal/mol.
The figure for GGATACACGTGGATTT is 0.12 kcal/mol; for TGTGGCACGTGGGATC it is -0.15 kcal/mol; for TGCTGCACGTGTCGGG it is 0.04 kcal/mol.
Then AGGTACACGTGATGTG, with 0.09 kcal/mol.
TTTCTCACGTGGGGGA: the “relative binding free energy” value amounted to 0.13 kcal/mol.
For GGGTGCACGTGGAGAA, the “relative binding free energy” value is -0.02 kcal/mol.
For the sequence GTGCGCACGTGTATTG, the “relative binding free energy” value is -0.04 kcal/mol.
Then GATACCACGTGGTTGG, with -0.02 kcal/mol.
The figure for AAGGACACGTGATTGT is 0.14 kcal/mol; for AGTGTCACGTGTGTTA it is 0.09 kcal/mol.
Take TTAGGCACGTGTTTTC: the “relative binding free energy” value was -0.05 kcal/mol.
The figure for TATTTCACGTGTTAGT is 0.35 kcal/mol; for ATGGTCACGTGTAAAG it is 0.12 kcal/mol; for AAGGGCACGTGGGGAG it is -0.21 kcal/mol.
Turning to TATTTCACGTGTGGTT, the “relative binding free energy” value stood at 0.36 kcal/mol.
Then TTGGGCACGTGAGGGC, with 0.16 kcal/mol; and TAAGTCACGTGTGTTC, with 0.22 kcal/mol; and TAATGCACGTGGTGTT, with -0.11 kcal/mol.
On to ATAGGCACGTGGGTTT, for which the “relative binding free energy” value was -0.19 kcal/mol.
The figure for TATATCACGTGGACGT is 0.16 kcal/mol; for TTTGTCACGTGCCGTA it is -0.07 kcal/mol; for GCGTTCACGTGGTGTA it is 0.38 kcal/mol.
Take TGATTCACGTGATGAT: the “relative binding free energy” value was 0.28 kcal/mol.
As to CGTTTCACGTGGGTCA, the “relative binding free energy” value was 0.08 kcal/mol.
Then AACATCACGTGGGTGG, with -0.01 kcal/mol; and TTAATCACGTGTACTT, with 0.03 kcal/mol.
The figure for CAGTGCACGTGTGGCG is 0.03 kcal/mol.
GGTAGCACGTGAACGG: the “relative binding free energy” value was found to be 0.13 kcal/mol.
For the sequence ATTTGCACGTGGATCA, the “relative binding free energy” value turned out to be 0.2 kcal/mol.
On to TTTGCCACGTGGTGGT, for which the “relative binding free energy” value is -0.19 kcal/mol.
Then GAATTCACGTGGATGT, with 0.32 kcal/mol.
Then AACGGCACGTGACGGG, with 0.09 kcal/mol.
The figure for TTAGACACGTGATGAT is 0.09 kcal/mol.
For TACATCACGTGAGGGG, the “relative binding free energy” value was determined as 0.14 kcal/mol.
Consider AAGGTCACGTGGGATG, for which the “relative binding free energy” value turned out to be 0.17 kcal/mol.
Consider TTGGTCACGTGAGCGC, for which the “relative binding free energy” value is 0.24 kcal/mol.
With TGGTTCACGTGGTATT, the “relative binding free energy” value was found to be 0.2 kcal/mol.
Then GGCGACACGTGAGGAG, with 0.2 kcal/mol; and TGTTGCACGTGCTAGA, with -0.08 kcal/mol.
GTGAGCACGTGGAGGG: the “relative binding free energy” value is -0.25 kcal/mol.
